PubChem BioAssay AID2451 (National Center for Advancing Translational Sciences (NCATS), 2010)
In all, about 290,000 compounds went through this assay and about 2,100 (0.72%) were called active. Inconclusive means that the source gave no clear call. Such entries were picked first, then a sample of the others. Calls come from the whole dose curve; as a rule, active = well fitted inhibition curve with a large enough effect; inconclusive = small, poorly fitted or top-dose-only effect, or effect the other way; inactive = flat fitted curve, though single readings scatter. Potencies beside an inconclusive call are fits to weak or partial responses and may not hold up.

target: Fructose-bisphosphate aldolase (Giardia intestinalis (strain ATCC 50803 / WB clone C6)) (UniProt A8B2U2); assay: qHTS Assay for Inhibitors of Fructose-1,6-bisphosphate Aldolase from Giardia Lamblia; settings: purified Giardia FBPA; activity, negative = inhibition: at 59.6 µM (top of the series) unless noted; note: nearly all actives have a fitted effect of over 55% in size
Sequence of UniProt A8B2U2 (A8B2U2 whole entry, looked up): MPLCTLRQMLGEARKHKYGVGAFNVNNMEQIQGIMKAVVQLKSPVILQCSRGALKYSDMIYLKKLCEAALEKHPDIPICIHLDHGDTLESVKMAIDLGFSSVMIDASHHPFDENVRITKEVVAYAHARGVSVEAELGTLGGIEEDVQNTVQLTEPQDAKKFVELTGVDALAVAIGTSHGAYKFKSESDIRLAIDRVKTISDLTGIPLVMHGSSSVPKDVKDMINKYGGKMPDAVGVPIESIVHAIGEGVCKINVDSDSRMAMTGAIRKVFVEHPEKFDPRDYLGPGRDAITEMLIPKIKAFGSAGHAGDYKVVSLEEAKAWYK
Outline: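 Giardia FBPA (40 nM reagent) was preincubated 10 min at RT with compound (up to 57.5 uM final), then substrate plus GAPDH/TPI/NAD/arsenate coupling system with diaphorase/resazurin was added; resorufin fluorescence (525/598 nm) was read after 20 min.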
% is set by controls: 0 for no effect and ±100 for the full control effect; potency is the fitted concentration of half-maximal effect; tags give direction and shape of the fitted curve.

Compound | Potency | activity, negative = inhibition
COc1ccccc1N1CCN(CC(=O)Nc2ccc3c(c2)OCCO3)CC1 | active: 17.7 µM | 
COc1ccc(/C=C/c2ccc(=O)n(Cc3ccccc3)n2)cc1 |  | inactive: -3.89%
C(=N\N1CCN(C2c3ccccc3-c3ccccc32)CC1)/c1ccccn1 | inconclusive: 19.9 µM [activator, single point] | 
Cc1cc(C)cc(OC(=O)CS(=O)c2ccc(C(F)(F)F)cc2[N+](=O)[O-])c1 (configuration not stated) | inconclusive: 7.06 µM [inhibitor, partial curve] | 
Cc1nnc(SCC2=C(C(=O)O)N3C(=O)C(NC(=O)C(C)n4nc(C(F)(F)F)cc4C)C3SC2)s1 (configuration not stated) | active: 6.29 µM | 
O=C(c1ccccc1)c1ccc(OCC(O)CNCc2ccc(F)cc2)cc1 (configuration not stated) | inconclusive: 14.1 µM [inhibitor, partial curve] | 
CN=C1N[C@H](c2ccccc2)N(c2ccccc2)S1 | active: 22.3 µM | 
O=C1C(Nc2ccc(O)cc2)=C/C(=N/S(=O)(=O)c2cccs2)c2ccccc21 | inconclusive: 0.141 µM [inhibitor, full curve] | 
Cn1c(-c2ccccc2)cnc1NCc1ccc(-c2ccccc2)cc1 | inconclusive: 14.1 µM [inhibitor, partial curve] | 
O=C(O)C1Nc2c(O)cccc2C2C=CCC12 (configuration not stated) | inconclusive: 31.5 µM [inhibitor, single point] | 
O=C(Nc1nnc(CSCc2ccccc2F)s1)c1cccc([N+](=O)[O-])c1 | inconclusive: 17.7 µM [inhibitor, single point] | 
Clc1ccc(COc2ccccc2CNCc2cccnc2)cc1 |  | inactive: 5.25%
O=C(c1cccs1)N1CCc2c([nH]c3ccccc23)C1c1ccc(Cl)cc1 (configuration not stated) |  | inactive: -0.975%
COc1cccc(C(=O)NCCN2CCN(c3ccccc3)CC2)c1 | inconclusive: 25.1 µM [inhibitor, partial curve] | 
CN1CCN(CCOc2ccc(Cc3ccccc3)cc2)CC1 | inconclusive: 11.2 µM [inhibitor, partial curve] | 
CC(C)[C@H](NC(=O)c1ccccc1)C(=O)OCC(=O)c1ccccc1F |  | inactive: -0.248%
CSCC[C@H](NC(=O)c1cccs1)C(=O)N1CCC2(CC1)NCCc1[nH]cnc12 | inconclusive: 25.1 µM [inhibitor, single point] | 
CCCCCCC(=O)N/N=C/c1c(O)n(C(C)CC)c(=S)[nH]c1=O (configuration not stated) | inconclusive: 22.3 µM [inhibitor, single point] | 
CC(=O)Nc1ccc2oc(-c3ccccc3Br)nc2c1 |  | inactive: -0.547%
O=C(Nn1c(=S)[nH]c2ccccc2c1=O)c1ccncc1 | active: 15.8 µM | 
OC(C#Cc1ccccn1)c1cccs1 (configuration not stated) | inconclusive: 7.06 µM [inhibitor, partial curve] | 
O=C(Cn1cnc([N+](=O)[O-])n1)c1ccc(O)c(O)c1 | inconclusive: 11.2 µM [inhibitor, partial curve] | 
Cc1sc(N)c(C(=O)c2cccc(C(F)(F)F)c2)c1C | inconclusive: 25.1 µM [inhibitor, partial curve] | 
CCCNc1nc(C)nc2c1cnn2CCc1ccccc1 |  | inactive: -17.2%

Compound | Potency | activity, negative = inhibition
CCN(CC)CCCNCC(=O)Nc1ccc(OC)c(Cl)c1 | inconclusive: 3.97 µM [inhibitor, full curve] | 
COc1ccc(OC)c2c(=S)c3ccccc3[nH]c12 | inconclusive: 25.1 µM [inhibitor, partial curve] | 
COc1ccc(N2CCN(CC(=O)Nc3cc(C)on3)CC2)cc1 | inconclusive: 17.7 µM [inhibitor, partial curve] | 
Fc1ccc(-n2nnc(-c3nccs3)n2)cc1 |  | inactive: 2.8%
CCN(CC)C(=O)C1CCCN(C/C=C/c2ccccc2[N+](=O)[O-])C1 (configuration not stated) | inconclusive: 22.4 µM [inhibitor, single point] | 
CNC(=S)N/N=C/c1ccccc1Cl | inconclusive: 17.7 µM [inhibitor, partial curve] | 
S=C(Nc1ccc2nc(-c3ccccn3)c(-c3ccccn3)nc2c1)N1CCOCC1 | inconclusive: 3.15 µM [inhibitor, partial curve] | 
CC1Cc2ccccc2N1C(=S)NC(=O)c1ccco1 (configuration not stated) | inconclusive: 3.15 µM [inhibitor, single point] | 
O=S(=O)(c1ccc(Cl)c(C(F)(F)F)c1)N1CCN(CC(O)COCC2CCCO2)CC1 (configuration not stated) | inconclusive: 25.1 µM [inhibitor, partial curve] | 
COC(=O)[C@@H]1C[C@H]2CC[C@H](O)C[C@H]2N1Cc1c(F)cccc1Cl |  | inactive: -2.21%
COc1c2ccoc2c(OCC=C(C)C)c2oc(=O)ccc12 | inconclusive: 17.7 µM [inhibitor, single point] | 
Nc1nnnn1CC(=O)N/N=C/c1ccccn1 | active: 17.7 µM | 
Cc1cccc(-n2nc(C)c3c(C(=O)O)cc(-c4cccs4)nc32)c1 | inconclusive: 17.7 µM [activator, single point] | 
CC(Oc1ccc(Cl)cc1)C(=O)NNC(=S)NC(=O)c1ccco1 (configuration not stated) | inconclusive: 14.1 µM [activator, partial curve] | 
CC(=O)c1c(C)nc(-c2ccc(Cl)cc2)nc1N=CN(C)C | inconclusive: 2.23 µM [inhibitor, full curve] | 
COc1cc(CN2CCN(C(=O)CC(C)C)CC2)c([N+](=O)[O-])cc1OC | inconclusive: 25.1 µM [inhibitor, partial curve] | 
Cc1cc(C)c(C)c(OCCCn2ccnc2)c1 | inconclusive: 15.8 µM [inhibitor, single point] | 
CC(=O)Nc1ccc(S(=O)(=O)N(CCCN2CCOCC2)Cc2cccs2)cc1 | inconclusive: 19.9 µM [inhibitor, partial curve] | 
C/C(=N\NC(N)=S)c1ccncc1 | inconclusive: 15.8 µM [inhibitor, partial curve] | 
COc1ccc(S(=O)(=O)N2CCN(C)CC2)cc1NC(=O)c1ccccc1C |  | inconclusive: 59.1% [activator]
CC(C)C(=O)NC(=S)Nc1ccccn1 |  | inactive: -28.7%
CSc1nsc(/C=C/Nc2ccc(F)cc2F)c1C#N | inconclusive: 22.3 µM [inhibitor, single point] | 
C#CCNC(=O)C1=C[C@@H](C2CC2)C[C@@H](OCCCCO)O1 |  | inactive: -8.68%
Clc1ccc(N2CCN(Cc3ccccc3Cl)CC2)cc1 | inconclusive: 22.3 µM [inhibitor, partial curve] | 

Compound | Potency | activity, negative = inhibition
CN(NS(=O)(=O)c1ccc(F)cc1)c1ncc(C(F)(F)F)cc1Cl | inconclusive: 17.7 µM [inhibitor, single point] | 
COc1cc(C2C(C#N)=C(N)N(N(C)C)C3=C2C(=O)CCC3)ccc1O (configuration not stated) | inconclusive: 10 µM [inhibitor, partial curve] | 
COc1ccc2nc(N3C(=O)CNC3=S)sc2c1 | inconclusive: 17.7 µM [inhibitor, partial curve] | 
CCOc1ccccc1NC(=O)CSc1nccn1-c1ccccc1 | inconclusive: 15.8 µM [inhibitor, partial curve] | 
Cc1noc(C)c1-c1cncnc1-n1ccnc1 |  | inactive: -0.0061%
CCOc1ccc(NCc2ccccc2OCc2cccc(F)c2)cc1 | inconclusive: 11.2 µM [inhibitor, partial curve] | 
Oc1c(CN2CCOCC2)ccc2ccccc12 | inconclusive: 19.9 µM [inhibitor, partial curve] | 
Cc1[nH][nH]c(=O)c1C(c1cc([N+](=O)[O-])ccc1O)c1c(C)[nH][nH]c1=O | inconclusive: 17.7 µM [inhibitor, partial curve] | 
CC(CCc1ccccc1)NC(=O)COC(=O)c1ccc(NC(=O)CC#N)cc1 (configuration not stated) |  | inactive: -2.62%
O=C(CN1CCN(c2ccc(O)cc2)CC1)Nc1ccc(SC(F)F)cc1 | inconclusive: 17.7 µM [inhibitor, partial curve] | 
CCCN1CCC(NC23CC4CC(CC(C4)C2)C3)CC1 | inconclusive: 31.6 µM [inhibitor, single point] | 
N#Cc1c(/N=C/c2c(O)n(Cc3ccco3)c(=O)[nH]c2=O)sc2c1CCCC2 | inconclusive: 22.3 µM [inhibitor, single point] | 
CC(=O)Nc1ccc(SC[C@H](Cc2ccccc2)N2CCN(CCc3ccccc3)CCC2=O)cc1 |  | inactive: -0.295%
O=C(Nc1ccccc1)N1CCCC2(CCN(C(=O)c3cccc(F)c3)CC2)C1 |  | inactive: 0.359%
CC(C)(C)c1ccccc1OCC(O)CN1CCN(c2ccccn2)CC1 (configuration not stated) | inconclusive: 20 µM [inhibitor, single point] | 
COc1cccc(OCCCn2ccnc2)c1 | inconclusive: 35.5 µM [inhibitor, single point] | 
O=S(=O)(c1ccccc1)N1CCN=C1SCc1ccccc1 | inconclusive: 15.8 µM [inhibitor, partial curve] | 
CCC/C(C)=N\Nc1nc2c(c(=O)n(C)c(=O)n2C)n1C | inconclusive: 19.9 µM [inhibitor, partial curve] | 
Cc1cc(C)n(C(=O)CCC(=O)Nc2ccc(C)c(C)c2)n1 |  | inactive: -1.59%
C(=N\Nc1nn2cnnc2c2ccccc12)/c1ccco1 | inconclusive: 19.9 µM [inhibitor, single point] | 
COc1ccccc1NS(=O)(=O)c1cc(NC(=O)c2sccc2C)ccc1N1CCCC1 | active: 14.1 µM | 
CCCc1cc(=O)[nH]c(=S)[nH]1 | inconclusive: 17.7 µM [inhibitor, single point] | 
O=C(NCCCCCCNC(=O)c1cncc(O)c1)c1cncc(O)c1 | inconclusive: 15.8 µM [inhibitor, single point] | 
COc1ccc(CNC(=O)c2c(C)oc3c2C(=O)c2ccccc2C3=O)cc1 | inconclusive: 0.397 µM [inhibitor, full curve] | 
